From a compilation of properties of binary mixtures (doi:10.1021/je990135o)
Several values for one entry are separate records, joined by “and”; a condition that tells them apart may be missing. Identical values can stand only once. Some of these densities may be calculated back from excess volumes.

Assay: xn = mol fraction of the nth substance listed
Conditions: 100 kPa

CCCCOCCO + CCOC(=O)OCC
298.15 K
Conditions	mass density [kg/m3]
x2 = 0.1281	897.9
x2 = 0.188	901.7
x2 = 0.2375	904.9
x2 = 0.3051	909.2
x2 = 0.3957	915.2
x2 = 0.4851	921.3
x2 = 0.5123	923.2
x2 = 0.5654	926.9
x2 = 0.8141	945.4
x2 = 0.8928	951.7
x2 = 0.9265	954.4

CCCCOCCOCCO + CCOC(=O)OCC
mass density [kg/m3]
Conditions	298.15 K	313.15 K
x2 = 0.088	949.5	936.6
x2 = 0.1518	–	937.5
x2 = 0.2932	952.9	939.4
x2 = 0.3666	954.2	–
x2 = 0.4433	955.7	–
x2 = 0.4507	956.9	–
x2 = 0.5071	–	942.4
x2 = 0.5249	957.2	942.7
x2 = 0.6202	959.2	–
x2 = 0.6668	960.2	945
x2 = 0.7118	–	945.8
x2 = 0.7668	–	946.8
x2 = 0.8246	964	948
x2 = 0.8781	965.4	949.2
x2 = 0.9027	966.1	949.7
x2 = 0.9299	–	950.4
x2 = 0.9633	–	951.3
x2 = 0.9788	968.5	951.7

CCOCCO + CCOC(=O)OCC
mass density [kg/m3]
Conditions	298.15 K	313.15 K
x2 = 0.0418	927.1	913.2
x2 = 0.1202	–	916.6
x2 = 0.1775	933.6	919
x2 = 0.252	937	–
x2 = 0.311	939.6	924.5
x2 = 0.3643	–	926.6
x2 = 0.4085	943.9	928.4
x2 = 0.4827	947.1	931.3
x2 = 0.5248	948.8	933
x2 = 0.5889	951.5	935.5
x2 = 0.6474	954	937.8
x2 = 0.7004	956.2	939.8
x2 = 0.7783	959.5	942.9
x2 = 0.8084	960.7	–
x2 = 0.9025	964.8	948
x2 = 0.9629	–	950.6

CCOCCOCCO + CCOC(=O)OCC
mass density [kg/m3]
Conditions	298.15 K	313.15 K
x2 = 0.0965	983	969.4
x2 = 0.1542	982.2	968.4
x2 = 0.2391	–	966.8
x2 = 0.2392	981	–
x2 = 0.2849	980.3	–
x2 = 0.3288	979.6	965.1
x2 = 0.3515	979.3	964.7
x2 = 0.3915	978.7	–
x2 = 0.4728	977.4	962.3
x2 = 0.489	977.1	–
x2 = 0.563	–	960.6
x2 = 0.6131	–	959.5
x2 = 0.6771	974	–
x2 = 0.6772	–	958.2
x2 = 0.7176	973.3	957.4
x2 = 0.8007	972	955.7
x2 = 0.8124	971.8	955.5
x2 = 0.9011	970.4	953.8
x2 = 0.9506	969.8	953
x2 = 0.9728	969.5	952.7

COCCO + CCOC(=O)OCC
mass density [kg/m3]
Conditions	298.15 K	313.15 K
x2 = 0.0363	–	946.2
x2 = 0.2143	961.4	–
x2 = 0.2656	961.8	–
x2 = 0.3182	962.2	946.8
x2 = 0.35	962.4	946.9
x2 = 0.4686	963.3	–
x2 = 0.5319	963.8	947.7
x2 = 0.6976	965.3	–
x2 = 0.7641	966	949.4
x2 = 0.7995	966.4	949.8
x2 = 0.8638	967.2	950.5
x2 = 0.9122	967.9	951.1

COCCOCCO + CCOC(=O)OCC
298.15 K
Conditions	mass density
x2 = 0.0319	1007.7 kg/m3
x2 = 0.0651	1012.8 kg/m3 and 999.3 kg/m3
x2 = 0.1234	1003.2 kg/m3
x2 = 0.1799	1000.3 kg/m3
x2 = 0.2191	998.4 kg/m3
x2 = 0.2541	1003.8 kg/m3
x2 = 0.2946	994.6 kg/m3
x2 = 0.3852	990.1 kg/m3
x2 = 0.4116	988.8 kg/m3
x2 = 0.4555	986.6 kg/m3
x2 = 0.5699	980.9 kg/m3
x2 = 0.6378	977.6 kg/m3
x2 = 0.7767	965.3 kg/m3
x2 = 0.8898	965.5 kg/m3
x2 = 0.931	963.7 kg/m3
